# From PubChem BioAssay AID588591 (National Center for Advancing Translational Sciences (NCATS), 2011)
# Out of some 390,000 compounds screened, about 4,700 (1.2%) were called active. The inconclusive results got no clear call from the source; some entries with a clear call stand among them for comparison. Calls follow the shape of the dose curve; as a rule, active = well fitted inhibition curve with a large enough effect; inconclusive = small, poorly fitted or top-dose-only effect, or another doubt; inactive = no such curve, though single readings can be large or run the other way. Potencies beside an inconclusive call are fits to weak or partial responses and may not hold up.
# Target: DNA polymerase eta (Homo sapiens) (UniProt Q9Y253)
# Experiment: qHTS for Inhibitors of Polymerase Eta
# Conditions: recombinant Pol eta, fluorescent DNA replication assay; series mostly up to 114 µM; activity change, negative = inhibition: at the top concentration
# Summary of the method: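 Pol eta (10 nM) was preincubated with compounds for 15 min at room temperature, after which fluorescent replication substrate (50 nM final) was added to start the reaction. Fluorescence was read kinetically at 0 and 10 min.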
# % is scaled to controls: 0 for no effect and ±100 for the full control effect; potency is read from the fitted curve at half-maximal effect; tags tell the direction and shape of the fitted curve.
# Chain of UniProt Q9Y253 (Q9Y253 whole entry, looked up): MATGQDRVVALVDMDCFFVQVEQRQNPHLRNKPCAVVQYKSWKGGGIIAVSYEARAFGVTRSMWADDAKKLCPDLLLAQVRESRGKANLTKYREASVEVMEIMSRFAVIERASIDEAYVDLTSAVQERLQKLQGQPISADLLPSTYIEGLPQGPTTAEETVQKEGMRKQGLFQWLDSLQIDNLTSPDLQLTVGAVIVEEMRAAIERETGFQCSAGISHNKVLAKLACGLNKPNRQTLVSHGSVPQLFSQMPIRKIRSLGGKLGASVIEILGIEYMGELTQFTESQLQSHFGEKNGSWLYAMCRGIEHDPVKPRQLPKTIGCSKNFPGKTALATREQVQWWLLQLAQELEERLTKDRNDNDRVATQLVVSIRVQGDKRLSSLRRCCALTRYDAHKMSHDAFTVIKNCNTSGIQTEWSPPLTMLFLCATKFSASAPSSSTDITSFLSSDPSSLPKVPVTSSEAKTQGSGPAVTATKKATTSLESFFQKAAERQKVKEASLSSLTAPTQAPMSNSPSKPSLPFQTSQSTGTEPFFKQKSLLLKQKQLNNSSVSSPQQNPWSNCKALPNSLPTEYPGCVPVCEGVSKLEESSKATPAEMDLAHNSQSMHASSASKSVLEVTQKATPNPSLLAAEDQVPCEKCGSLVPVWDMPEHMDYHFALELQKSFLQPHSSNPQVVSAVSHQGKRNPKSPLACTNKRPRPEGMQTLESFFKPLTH
SMILES,Potency,"activity change, negative = inhibition"
Cc1cc(C)c(S(=O)(=O)/N=C2/C=C(SCC(=O)O)C(=O)c3ccccc32)cc1C,active: 20 µM,
O=C(NCC(c1ccc(Cl)cc1)N1CCCCC1)c1ccccc1F (stereo unspecified),,inactive: -20.4%
CNS(=O)(=O)c1cn(CC(=O)N(C)Cc2ccccc2)cc1S(=O)(=O)NC,"inconclusive: 44.7 µM [inhibitor, partial curve, poor fit]",
O=C(COC(=O)c1cc(-c2ccc(Cl)s2)nc2ccccc12)NCc1ccco1,active: 20 µM,
COc1cccc2c1Oc1ncccc1N(c1ccc(C(=O)NCc3ccccc3Cl)s1)C2,,inactive: -5.07%
CC(C)CC(C(=O)O)N(Cc1ccccc1)Cc1ccccc1 (stereo unspecified),"inconclusive: 2.82 µM [inhibitor, full curve, poor fit]",
O=C(CSCc1ccco1)c1cccs1,"inconclusive: 15.8 µM [inhibitor, partial curve, poor fit]",
O=C(N/C=C/c1ccco1)OCc1ccccc1,"inconclusive: 89.1 µM [inhibitor, partial curve]",
COc1cc(C(c2c(C)[nH][nH]c2=O)c2c(C)[nH][nH]c2=O)cc(Cl)c1O,,inactive: -9.24%
O=C1c2ccccc2C(=O)N1CCCc1nc2ccccc2c(=O)n1CCCn1ccnc1,"inconclusive: 100 µM [inhibitor, single point]",
CSc1nnc(-c2ccccc2N=Cc2c(C)[nH]n(-c3ccc4ccccc4c3)c2=O)c(=O)[nH]1,"inconclusive: 39.8 µM [inhibitor, partial curve, poor fit]",
Cc1noc(C)c1CSCC(=O)OCc1nc2ccccc2c(=O)n1CC#N,"inconclusive: 79.4 µM [inhibitor, partial curve, poor fit]",
O=C(NN1C(=O)/C(=C/C=C/c2ccco2)SC1=S)c1ccccc1O,active: 1.12 µM,
CC(=O)N1CCN(c2ccc(NCc3ccc4c(c3)OCO4)cc2)CC1,"inconclusive: 25.1 µM [inhibitor, single point]",
Cc1ccccc1C(=O)Nc1nnc(S(=O)(=O)N(C)Cc2ccco2)s1,"inconclusive: 56.2 µM [inhibitor, partial curve]",
O=C(Nc1sc2c(c1C(=O)NCc1ccco1)CCCC2)c1ccc2c(c1)OCO2,,inactive: -10.8%
CCN(Cc1ccccc1)C(=O)CN(c1ccc(OC)cc1)S(=O)(=O)c1c(C)nn(C)c1C,,inactive: -16.4%
O=C(Nc1ccc(Cl)cc1)Nc1ccc2c(c1)N1CCN=C1S2,"inconclusive: 35.5 µM [inhibitor, single point]",
CCOC(=O)c1nc2cc3n(c(C)c-2c1C)C(C)C(CC)=C3C (stereo unspecified),"inconclusive: 35.5 µM [inhibitor, single point]",
CC(C)=NNc1nc(-c2ccc(N3C(=O)CCC3=O)cc2)cs1,"inconclusive: 70.8 µM [inhibitor, partial curve, poor fit]",
O=C(Nc1ccc2nc(-c3ccccn3)c(-c3ccccn3)nc2c1)N1CCOCC1,"inconclusive: 89.1 µM [inhibitor, partial curve, poor fit]",
CCOc1ccc(C(C)NC(=S)NC2CCCCC2)cc1OCC (stereo unspecified),"inconclusive: 79.4 µM [inhibitor, partial curve, poor fit]",

SMILES,Potency,"activity change, negative = inhibition"
O=[N+]([O-])c1c(Nc2ccc(O)cc2)cc(Cl)c2nonc12,active: 50.1 µM,
O=C(O)c1ccc(C[n+]2c(-c3ccccc3)csc2Nc2ccccc2)cc1,"inconclusive: 31.6 µM [inhibitor, partial curve, poor fit]",
COC/C=C/C1=CC2=CC(=O)C(C)(OC(=O)c3cnc4ccccc4n3)C(=O)C2=CN1CC(C)C (stereo unspecified),active: 25.1 µM,
CCCCc1ccc(NC(=O)c2ccc(=O)n(Cc3cccc(C)c3)c2)cc1,"inconclusive: 50.1 µM [inhibitor, partial curve, poor fit]",
COc1ccc(C(=O)CN2CCN(CCN3C(=O)c4cccc5cccc(c45)C3=O)CC2)cc1,"inconclusive: 35.5 µM [inhibitor, partial curve, poor fit]",
O=C(O)c1ccccc1NS(=O)(=O)c1ccc(N/N=C/c2cccc(O)c2O)c([N+](=O)[O-])c1,active: 3.16 µM,
C[C@@H]1COC(=O)[C@H](NC(=O)OCC2c3ccccc3-c3ccccc32)C/C=C\C[C@@H](CC(=O)N[C@H](CO)Cc2ccccc2)C(=O)N1,"inconclusive: 50.1 µM [inhibitor, partial curve]",
CS(=O)(=O)N(CC(=O)N1CCN(Cc2ccccc2)CC1)C1CCCCC1,"inconclusive: 56.2 µM [inhibitor, partial curve, poor fit]",
Cc1ccc(NC(=O)CSc2nnc(-c3ccco3)c(-c3ccco3)n2)cc1,active: 11.2 µM,
Cc1nnc(N2CCC(C(=O)NCCc3ccccc3Cl)CC2)c2nn(-c3ccccc3)c(C)c12,"inconclusive: 100 µM [inhibitor, partial curve, poor fit]",
COC(=O)c1sccc1NC(=O)c1cc2c(s1)CCCC2,"inconclusive: 20 µM [inhibitor, partial curve, poor fit]",
COc1ccccc1CNC(=O)C(=O)NCC1OCCCN1S(=O)(=O)c1ccc(F)cc1C (stereo unspecified),"inconclusive: 79.4 µM [inhibitor, partial curve, poor fit]",
COc1ccccc1Cc1nc2ccccc2nc1SCC(=O)N(C)c1ccc(F)cc1,,inactive: -11.7%
N=C1/C(=C\c2coc3ccccc3c2=O)C(=O)N=C2SC(c3ccncc3)=NN12,active: 2.82 µM,
COc1ccc(N=CC2=C(O)c3ccccc3C2=O)c(OC)c1,,inactive: -0.575%
CCOC(=O)CSc1nc2sc3c(c2c(=O)[nH]1)CCCC3,,inactive: 5.35%
CCCCCCOc1ccc(C2C(=O)N(C3CCCCC3)CC(=O)N2CCC)cc1 (stereo unspecified),,inactive: -23.1%
O=C(CSc1nnc(Nc2ccccc2F)s1)NC1CCS(=O)(=O)C1 (stereo unspecified),,inactive: -4.18%
COc1ccc(CCC(=O)NC(C)c2ccccc2)cc1OC (stereo unspecified),"inconclusive: 39.8 µM [inhibitor, partial curve, poor fit]",
Cc1c(OCC(=O)NC(Cc2ccc(Cl)cc2)C(=O)O)ccc2c(-c3ccccc3)cc(=O)oc12 (stereo unspecified),"inconclusive: 50.1 µM [inhibitor, partial curve]",
COc1ccc(OC)c(C(=O)COC(=O)c2cccnc2Cl)c1,,inactive: 2.28%
CCCCC#Cc1ccc2c(c1)COc1c3ccccc3nn1-2,"inconclusive: 89.1 µM [inhibitor, partial curve, poor fit]",

SMILES,Potency,"activity change, negative = inhibition"
NCCCC[C@H]1CNC(=S)N1CCc1cc(C(F)(F)F)cc(C(F)(F)F)c1,"inconclusive: 79.4 µM [inhibitor, partial curve, poor fit]",
CCOc1ccc(CCNC(=O)CCCn2nc(C)c3sc4ccccc4c3c2=O)cc1,,inactive: -5.19%
COC(CNC(=O)c1ccc2c3c(onc13)-c1ccccc1C2=O)OC,"inconclusive: 56.2 µM [inhibitor, partial curve, poor fit]",
O=C(c1ccc(N2CCCC2)c([N+](=O)[O-])c1)N1CCN(CCO)CC1,"inconclusive: 79.4 µM [inhibitor, partial curve, poor fit]",
O=C(COc1ccccc1)NCCSCc1ccco1,active: 14.1 µM,
O=C(Nc1ccc2oc(-c3ccccc3)nc2c1)c1cccs1,"inconclusive: 20 µM [inhibitor, single point]",
COc1ccc(C)cc1NC(=O)CSc1ccc(-c2ccco2)nn1,"inconclusive: 20 µM [inhibitor, full curve, poor fit]",
O=C(Nc1nnc(CCc2ccccc2)s1)c1ccccc1F,"inconclusive: 100 µM [inhibitor, partial curve, poor fit]",
COc1cc(CNCc2ccccc2)c(Br)cc1OC1CCCC1,,inactive: -19.4%
COc1ccccc1NC(=O)c1cnc(SCC(=O)NCC2CCCO2)n(C)c1=O (stereo unspecified),active: 39.8 µM,
Cc1cccc(N2CCN(C(=O)c3ccc(CS(=O)Cc4cccc(Cl)c4)o3)CC2)c1C (stereo unspecified),"inconclusive: 79.4 µM [inhibitor, partial curve, poor fit]",
O=C(/C=C/c1ccccc1)c1ccc2c(c1)OCO2,"inconclusive: 79.4 µM [inhibitor, partial curve, poor fit]",
CCOC(=O)c1c(S(=O)(=O)NCC(=O)Nc2ccc(F)cc2F)c(C)n(C)c1C,,inactive: -3.15%
O=C(COC(=O)c1cnccn1)Nc1ncc(C(F)(F)F)cc1Cl,"inconclusive: 22.4 µM [inhibitor, partial curve, poor fit]",
COC(=O)CCC(=O)OC1(C)C(=O)C=C2C=C3CCCN3C=C2C1=O (stereo unspecified),active: 50.1 µM,
O=c1oc(-c2cccs2)nc2scc(-c3cccs3)c12,"inconclusive: 44.7 µM [inhibitor, partial curve, poor fit]",
COc1ccc(C(=O)NC(=S)Nc2ccc(CN3CCCCC3)cc2)cc1Cl,"inconclusive: 79.4 µM [inhibitor, partial curve, poor fit]",
COc1ccc(/C=N/NC(=O)c2cccc(OC(F)(F)C(F)F)c2)cc1O,"inconclusive: 89.1 µM [inhibitor, partial curve, poor fit]",
O=C(COC(=O)c1ccc([N+](=O)[O-])o1)Nc1ccc(N2CCOCC2)cc1,"inconclusive: 89.1 µM [inhibitor, partial curve, poor fit]",
O=C1/C(=C/C=C/c2ccco2)SC(=S)N1NS(=O)(=O)c1ccccc1,active: 1.12 µM,
CCc1ccc(N=C2NC(=O)/C(=C/c3cc(Br)c(OCC(=O)O)c(OC)c3)S2)cc1,active: 35.5 µM,
O=C(O)Cc1ccc(N=Nc2c(O)c(C(=O)O)cc3ccccc23)cc1,active: 7.08 µM,
